# The list shows a part of the results.
# B1: GS13455A-bfa-343-25-343 (Bacteroides fragilis) (protein)
# chain: KDEIQIVDQDTSWQMDNKYIEEDIREQLGIDPFTDLVYLGYYGNPYTQLEAINDLVNTTLVGKNELSFKVKVTKPYKEDIKVNLMKEDKLVTDFPEMAEGIPLFPSENCTFEGGVLKAGELETTVKLTLKDVEKLNNLSGYVMAIKLTMEGSHEHLAIARTRSSYFVKLNLSIRLDNIDSSNKKIEGKGFNKEISFKSDIRPDKLGSLNDGNFTANNWYTSNANNYLTIILPEKQSLKGFRLDTNTSPSGSYMLKSCRVMVETPDGNWVNHGVFDRKSMDGIAYISFKKPVECTKVRFENMMAFNGRFSVDVNEVTAFR
# Key:
# Experiment in all cases: glycan array binding signal (z-score within array); higher = stronger binding
# Settings in all cases: glycan notation: IUPAC condensed, linker removed
# [1] = target: Fuc(a1-2)[Gal(a1-3)]Gal(b1-4)GlcNAc(b1-2)Man(a1-3)[Fuc(a1-2)[Gal(a1-3)]Gal(b1-4)GlcNAc(b1-2)Man(a1-6)]Man(b1-4)GlcNAc(b1-4)[Fuc(a1-6)]GlcNAc
# In short: (§1)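 Glycan array binding is given as a within-array Z-score, which can be read as non-binding when negative. The arrays, 3228 of them, came from the Consortium for Functional Glycomics database and were retained only where the protein sequence was available. Z-scores were averaged across arrays of the same protein sequence at different concentrations or buffers and across linkers.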
# [2] = target: Fuc(a1-2)[Gal(a1-3)]Gal(b1-4)GlcNAc(b1-3)GalNAc
# In short: as §1
# [3] = target: Fuc(a1-2)[Gal(a1-3)]Gal(b1-4)GlcNAc(b1-3)[Fuc(a1-2)[Gal(a1-3)]Gal(b1-4)GlcNAc(b1-6)]GalNAc
# In short: as §1
# [4] = target: Fuc(a1-2)[Gal(a1-3)]Gal(b1-4)GlcNAc(b1-6)GalNAc
# In short: as §1
# [5] = target: Fuc(a1-2)[Gal(a1-3)]Gal(b1-4)[Fuc(a1-3)]Glc
# In short: as §1
# [6] = target: Fuc(a1-2)[Gal(a1-3)]Gal(b1-4)[Fuc(a1-3)]GlcNAc
# In short: as §1
# [7] = target: Fuc(a1-2)[Gal(a1-3)]Gal(b1-4)[Fuc(a1-3)]GlcNAc(b1-3)GalNAc
# In short: as §1
# [8] = target: Fuc(a1-2)[Gal(a1-4)]Gal(b1-4)GlcNAc
# In short: as §1
# [9] = target: Fuc(a1-2)[GalNAc(a1-3)]Gal
# In short: as §1
# [10] = target: Fuc(a1-2)[GalNAc(a1-3)]Gal(b1-3)GalNAc(a1-3)[Fuc(a1-2)]Gal(b1-4)GlcNAc
# In short: as §1
# [11] = target: Fuc(a1-2)[GalNAc(a1-3)]Gal(b1-3)GalNAc(b1-3)Gal(a1-4)Gal(b1-4)Glc
# In short: as §1
# [12] = target: Fuc(a1-2)[GalNAc(a1-3)]Gal(b1-3)GlcNAc
# In short: as §1
# [13] = target: Fuc(a1-2)[GalNAc(a1-3)]Gal(b1-3)GlcNAc(b1-2)Man(a1-3)[Fuc(a1-2)[GalNAc(a1-3)]Gal(b1-3)GlcNAc(b1-2)Man(a1-6)]Man(b1-4)GlcNAc(b1-4)GlcNAc
# In short: as §1
# [14] = target: Fuc(a1-2)[GalNAc(a1-3)]Gal(b1-3)GlcNAc(b1-2)Man(a1-3)[Fuc(a1-2)[GalNAc(a1-3)]Gal(b1-3)GlcNAc(b1-2)Man(a1-6)]Man(b1-4)GlcNAc(b1-4)[Fuc(a1-6)]GlcNAc
# In short: as §1
# [15] = target: Fuc(a1-2)[GalNAc(a1-3)]Gal(b1-3)GlcNAc(b1-3)GalNAc
# In short: as §1
# [16] = target: Fuc(a1-2)[GalNAc(a1-3)]Gal(b1-3)GlcNAc(b1-6)GalNAc
# In short: as §1
# [17] = target: Fuc(a1-2)[GalNAc(a1-3)]Gal(b1-4)Glc
# In short: as §1
# [18] = target: Fuc(a1-2)[GalNAc(a1-3)]Gal(b1-4)GlcNAc
# In short: as §1
# [19] = target: Fuc(a1-2)[GalNAc(a1-3)]Gal(b1-4)GlcNAc(b1-2)Man
# In short: as §1
# [20] = target: Fuc(a1-2)[GalNAc(a1-3)]Gal(b1-4)GlcNAc(b1-2)Man(a1-3)[Fuc(a1-2)[GalNAc(a1-3)]Gal(b1-4)GlcNAc(b1-2)Man(a1-6)]Man(b1-4)GlcNAc(b1-4)GlcNAc
# In short: as §1
# [21] = target: Fuc(a1-2)[GalNAc(a1-3)]Gal(b1-4)GlcNAc(b1-2)Man(a1-3)[Fuc(a1-2)[GalNAc(a1-3)]Gal(b1-4)GlcNAc(b1-2)Man(a1-6)]Man(b1-4)GlcNAc(b1-4)[Fuc(a1-6)]GlcNAc
# In short: as §1
# [22] = target: Fuc(a1-2)[GalNAc(a1-3)]Gal(b1-4)GlcNAc(b1-3)Gal(b1-4)GlcNAc
# In short: as §1
# [23] = target: Fuc(a1-2)[GalNAc(a1-3)]Gal(b1-4)GlcNAc(b1-3)Gal(b1-4)GlcNAc(b1-3)Gal(b1-4)GlcNAc
# In short: as §1
# [24] = target: Fuc(a1-2)[GalNAc(a1-3)]Gal(b1-4)GlcNAc(b1-3)GalNAc
# In short: as §1
# [25] = target: Fuc(a1-2)[GalNAc(a1-3)]Gal(b1-4)GlcNAc(b1-3)[Fuc(a1-2)[GalNAc(a1-3)]Gal(b1-4)GlcNAc(b1-6)]GalNAc
# In short: as §1
# [26] = target: Fuc(a1-2)[GalNAc(a1-3)]Gal(b1-4)GlcNAc(b1-6)GalNAc
# In short: as §1
# [27] = target: Fuc(a1-2)[GalNAc(a1-3)]Gal(b1-4)[Fuc(a1-3)]GlcNAc
# In short: as §1
# [28] = target: Fuc(a1-2)[GalNAc(a1-3)]Gal(b1-4)[Fuc(a1-3)]GlcNAc(b1-3)GalNAc
# In short: as §1
# [29] = target: Fuc(a1-2)[GalNAc(a1-4)]Gal(b1-4)GlcNAc
# In short: as §1
# [30] = target: Fuc(a1-2)[GalNAc(b1-3)]Gal
# In short: as §1
# [31] = target: Fuc(a1-3)GlcNAc
# In short: as §1
# [32] = target: Fuc(a1-3)[Gal(b1-4)]Glc6S
# In short: as §1
# [33] = target: Fuc(a1-3)[Gal(b1-4)]GlcNAc
# In short: as §1
# [34] = target: Fuc(a1-3)[Gal(b1-4)]GlcNAc(b1-2)Man
# In short: as §1
# [35] = target: Fuc(a1-3)[Gal(b1-4)]GlcNAc(b1-2)Man(a1-3)[Fuc(a1-3)[Gal(b1-4)]GlcNAc(b1-2)Man(a1-6)]Man(b1-4)GlcNAc(b1-4)GlcNAc
# In short: as §1
# [36] = target: Fuc(a1-3)[Gal(b1-4)]GlcNAc(b1-2)Man(a1-3)[Fuc(a1-3)[Gal(b1-4)]GlcNAc(b1-2)Man(a1-6)]Man(b1-4)GlcNAc(b1-4)[Fuc(a1-6)]GlcNAc
# In short: as §1
# [37] = target: Fuc(a1-3)[Gal(b1-4)]GlcNAc(b1-3)Gal(b1-3)[Fuc(a1-4)]GlcNAc
# In short: as §1
# [38] = target: Fuc(a1-3)[Gal(b1-4)]GlcNAc(b1-3)Gal(b1-4)[Fuc(a1-3)]GlcNAc
# In short: as §1
# [39] = target: Fuc(a1-3)[Gal(b1-4)]GlcNAc(b1-3)Gal(b1-4)[Fuc(a1-3)]GlcNAc(b1-3)Gal(b1-4)[Fuc(a1-3)]GlcNAc
# In short: as §1
# [40] = target: Fuc(a1-3)[Gal(b1-4)]GlcNAc(b1-3)GalNAc
# In short: as §1
# [41] = target: Fuc(a1-3)[Gal(b1-4)]GlcNAc(b1-6)GalNAc
# In short: as §1
# [42] = target: Fuc(a1-3)[Gal(b1-4)]GlcNAc(b1-6)[Gal(b1-3)GlcNAc(b1-3)]Gal(b1-4)Glc
# In short: as §1
# [43] = target: Fuc(a1-3)[Gal(b1-4)]GlcNAc6S
# In short: as §1
# [44] = target: Fuc(a1-3)[Gal3S(b1-4)]Glc
# In short: as §1
# [45] = target: Fuc(a1-3)[Gal3S(b1-4)]GlcNAc
# In short: as §1
binder,measurement,setting,value
B1,glycan array binding signal (z-score),[1],-0.628
same,glycan array binding signal (z-score),[2],-0.803
same,glycan array binding signal (z-score),[3],0.147
same,glycan array binding signal (z-score),[4],-0.376
same,glycan array binding signal (z-score),[5],-0.566
same,glycan array binding signal (z-score),[6],-0.105
same,glycan array binding signal (z-score),[7],0.009
same,glycan array binding signal (z-score),[8],0.385
same,glycan array binding signal (z-score),[9],0.215
same,glycan array binding signal (z-score),[10],0.278
same,glycan array binding signal (z-score),[11],-0.193
same,glycan array binding signal (z-score),[12],0.48
same,glycan array binding signal (z-score),[13],0.229
same,glycan array binding signal (z-score),[14],0.207
same,glycan array binding signal (z-score),[15],2.29
same,glycan array binding signal (z-score),[16],-0.628
same,glycan array binding signal (z-score),[17],1.22
same,glycan array binding signal (z-score),[18],0.182
same,glycan array binding signal (z-score),[19],0.645
same,glycan array binding signal (z-score),[20],-0.335
same,glycan array binding signal (z-score),[21],1.46
same,glycan array binding signal (z-score),[22],-0.415
same,glycan array binding signal (z-score),[23],-0.611
same,glycan array binding signal (z-score),[24],0.248
same,glycan array binding signal (z-score),[25],-0.563
same,glycan array binding signal (z-score),[26],-0.788
same,glycan array binding signal (z-score),[27],0.105
same,glycan array binding signal (z-score),[28],-0.387
same,glycan array binding signal (z-score),[29],-0.582
same,glycan array binding signal (z-score),[30],1.09
same,glycan array binding signal (z-score),[31],0.11
same,glycan array binding signal (z-score),[32],-0.375
same,glycan array binding signal (z-score),[33],0.101
same,glycan array binding signal (z-score),[34],-0.516
same,glycan array binding signal (z-score),[35],-0.389
same,glycan array binding signal (z-score),[36],-0.142
same,glycan array binding signal (z-score),[37],-0.611
same,glycan array binding signal (z-score),[38],0.401
same,glycan array binding signal (z-score),[39],-0.354
same,glycan array binding signal (z-score),[40],-0.176
same,glycan array binding signal (z-score),[41],-0.529
same,glycan array binding signal (z-score),[42],0.284
same,glycan array binding signal (z-score),[43],0.127
same,glycan array binding signal (z-score),[44],-0.586
same,glycan array binding signal (z-score),[45],0.26

# From the supplement of paper PMC8728848
